# The whole screen tested about 370,000 compounds, of which about 150 (0.041%) were called active. The shares of active, inactive and inconclusive entries below differ from those in the screen. The call rests on the fitted dose curve; in most records, active means well fitted inhibition curve with a large enough effect; inconclusive means small, poorly fitted or top-dose-only effect; inactive means flat fitted curve, though single readings scatter. No potency is given beside an inconclusive call; the fits are too rough.
# Molecular target: Beta-lactamase (Escherichia coli (strain K12)) (UniProt P00811)
# Sequence of UniProt P00811 (P00811 whole entry, looked up): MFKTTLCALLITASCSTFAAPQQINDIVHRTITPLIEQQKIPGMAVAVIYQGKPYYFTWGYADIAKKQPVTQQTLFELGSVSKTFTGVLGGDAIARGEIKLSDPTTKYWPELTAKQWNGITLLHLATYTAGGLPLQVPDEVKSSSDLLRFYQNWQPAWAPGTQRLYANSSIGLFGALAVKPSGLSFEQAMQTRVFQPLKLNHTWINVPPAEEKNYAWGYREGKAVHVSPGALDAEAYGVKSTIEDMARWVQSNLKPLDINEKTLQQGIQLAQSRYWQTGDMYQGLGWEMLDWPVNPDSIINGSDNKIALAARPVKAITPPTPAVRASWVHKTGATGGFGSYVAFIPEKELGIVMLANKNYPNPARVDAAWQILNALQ
# Assay: qHTS Inhibitors of AmpC Beta-Lactamase (assay with detergent); further: nearly all actives have a fitted effect of over 25% in size;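 on activity change, negative = inhibition: 0% = no-compound wells and -100% = no-enzyme wells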
# Conditions: AmpC hydrolysis of nitrocefin, absorbance 480 nm, 0.01% Triton; activity change, negative = inhibition: at 114 µM (top of the series)
# How it was run: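 20 mM phosphate pH 7.0 + 0.01% (detergent screen) or 0.0001% Triton X-100; 5.3 nM AmpC reagent; cpd preinc 15 min RT; nitrocefin (800 uM stock) to start; A480 q20 s × 4 min; Activity was normalised to no-enzyme and no-compound control wells.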
# Potency means the concentration at half of the fitted maximal effect; tags describe the fitted curve by direction and shape.
Compound,"activity change, negative = inhibition",Potency
Cc1cc(=O)oc2cc(Oc3ncccc3[N+](=O)[O-])ccc12,inactive: 1.63%,–
CC(=O)c1nn(-c2cccc(Br)c2)cc1C(=O)c1ccco1,–,"inconclusive [inhibitor, single point]"
Cc1ccc(C(=O)Nc2ccc3cn[nH]c3c2)cc1S(=O)(=O)N1CCOCC1,inactive: 0.675%,–
C(=N\Nc1nc2ccccc2[nH]1)/c1c[nH]c2ccccc12,inactive: -22.5%,–
Cc1ccccc1C(=O)NC(=S)NCCC1=CCCCC1,inactive: 6.78%,–
O=C(Nc1cccnc1)c1ccc(Cl)c(S(=O)(=O)N2CCCCCC2)c1,–,"inconclusive [inhibitor, full curve, poor fit]"
Cc1ccc2c(c1)C1CC(C)(O2)N(c2cccc(C(=O)NC3CCN(Cc4ccccc4)CC3)c2)C(=O)N1 (stereo unspecified),–,"inconclusive [inhibitor, partial curve]"
CCCN(CCC)C(=O)C(Cc1ccccc1)NS(=O)(=O)c1ccc2c(c1)c(=O)n(C)c(=O)n2C (stereo unspecified),inactive: 4.62%,–
CCC1OC(=O)C(C)C(OC2C[C@@](C)(OC)C(O)C(C)O2)C(C)C(O[C@@H]2OC(C)CC(N(C)C)C2O)[C@](C)(O)CC(C)C(=NOCOCCOC)C(C)C(O)[C@]1(C)O (stereo partly specified),–,"inconclusive [inhibitor, full curve, poor fit]"
COc1ccc(/C=N/n2c(-c3n[nH]c4c3CCC4)n[nH]c2=S)c(OC)c1OC,inactive: -1.34%,–
COc1cc(C(=O)N2CCN(S(=O)(=O)c3ccc(F)cc3)CC2)cc(OC)c1OC,–,"inconclusive [inhibitor, full curve, poor fit]"
CC1CCc2c(sc(NC(=O)c3c([N+](=O)[O-])cnn3C)c2C(N)=O)C1 (stereo unspecified),–,"inconclusive [inhibitor, full curve, poor fit]"
COc1ccc(C(=O)N(C)Cc2ccccn2)cc1OC1CCN(C(C)C)CC1,inactive: 6.6%,–
COc1cc(Nc2ncc3c(n2)CCN(Cc2cccc(C)c2)C3)cc(OC)c1,inactive: 24.3%,–
Cc1cc(Nc2ccccc2)nn1C(=O)c1ccc([N+](=O)[O-])cc1,–,"inconclusive [inhibitor, full curve, poor fit]"
CCOc1ccccc1CN1CCN(C2CCC2)CC1CCO (stereo unspecified),–,"inconclusive [inhibitor, partial curve, poor fit]"
Cc1cccc(N2CCN(C(=O)C3CCN(c4ncnc5c4nc4n5CCCCC4)CC3)CC2C)c1 (stereo unspecified),–,"inconclusive [inhibitor, full curve]"
COc1ccccc1N1CCN(C(=O)c2ccccc2N(C)S(=O)(=O)c2ccc(C)cc2)CC1,inactive: 5.5%,–
CCCn1cnc2c(oc3ccccc32)c1=O,inactive: -0.534%,–
CCn1c(C)nc([N+](=O)[O-])c1Sc1ccc(F)cc1,inactive: -6.86%,–
CCc1cc(-c2[nH]ncc2-c2ccc([N+](=O)[O-])cc2)c(O)cc1OC,inactive: -0.776%,–
Cc1c(C(=O)NCCc2ccccc2)oc2ccccc12,–,"inconclusive [inhibitor, full curve, poor fit]"
CC(C)(C)c1nnc2sc(SCCN3C(=O)c4ccccc4C3=O)nn2c1=O,–,"inconclusive [inhibitor, full curve, poor fit]"

Compound,"activity change, negative = inhibition",Potency
O=C(COC(=O)Cc1c[nH]c2ccccc12)NC1CCCCC1,–,"inconclusive [inhibitor, partial curve, poor fit]"
O=C(Nc1ccccc1)Nc1ccc2nnsc2c1,inactive: -11.7%,–
CC(C)Cc1cc(C(=O)Nc2ccc3c(c2)OCO3)no1,inactive: -14.4%,–
CCOC(=O)c1sc2nc(CC(=O)OC)nc(NCCN(CC)CC)c2c1C,inactive: 1.55%,–
CCC(C)(C)NC(=O)c1ccc(Sc2nncn2C)c([N+](=O)[O-])c1,–,"inconclusive [inhibitor, full curve]"
Cc1nnc(SCc2nc3ccccc3nc2C)s1,–,"inconclusive [inhibitor, full curve, poor fit]"
COCCN(C(=O)COC(=O)c1c(-c2ccccc2)noc1C)c1c(N)n(Cc2ccccc2)c(=O)[nH]c1=O,–,"inconclusive [inhibitor, single point]"
COc1ccc(OC)c(NC(=S)NCCN2CCOCC2)c1,–,"inconclusive [inhibitor, full curve, poor fit]"
CC1=CC(C)(C)N2C(=O)C3(NCCc4c3[nH]c3ccccc43)c3cc(C)cc1c32 (stereo unspecified),inactive: -4.82%,–
O=C(Cn1cc2c(n1)CCCCC2)NCCCN1CCOCC1,–,"inconclusive [inhibitor, full curve, poor fit]"
FC(F)(F)c1ccc(/C=N/N2CCN(Cc3ccccc3)CC2)cc1,–,"inconclusive [inhibitor, single point]"
CC(C)(C)c1cc(-c2nc(N)nc(N)n2)cc(C(C)(C)C)c1,–,"inconclusive [inhibitor, partial curve]"
CSC1=NCCN1C(=O)Cc1ccc(-c2ccccc2)cc1,inactive: -1.29%,–
Cc1cc(C(=O)NCCCN2CCN(C3CCCCC3)CC2)n(-c2ccccc2)n1,–,"inconclusive [inhibitor, partial curve]"
Cc1nc(-c2cccc(NC(=O)c3cccs3)c2)cs1,inactive: -11.9%,–
C=CCC(C#N)(c1ccc(OC)c(OC)c1)c1cnccn1 (stereo unspecified),inactive: -7.18%,–
O=C(C1CCN(S(=O)(=O)c2ccc(Br)s2)CC1)N1CCN(c2cccc(C(F)(F)F)c2)CC1,inactive: -7.04%,–
CCSc1nc(C)c(CCOc2cccc(C)c2)c(=O)[nH]1,–,"inconclusive [inhibitor, single point]"
COC1=C(Nc2ccc(OC)cc2)C(=O)c2ccccc2C1=O,inactive: -7.74%,–
O=C(Oc1cccnc1)c1ccco1,–,"inconclusive [inhibitor, single point]"
CCOC(=O)C1CCN(C/C=C/c2ccccc2)CC1,–,"inconclusive [inhibitor, full curve, poor fit]"
O=C(CSc1ccc2nnc(CCNC(=O)c3ccccc3)n2n1)NCCc1ccccc1,inactive: 4.08%,–
CCc1ccc(NC(=O)CSC2=C(C#N)C(c3ccco3)C3=C(CCCC3=O)N2)cc1 (stereo unspecified),–,"inconclusive [inhibitor, partial curve, poor fit]"
